We go through 54 compounds from ChEMBL document CHEMBL4888484, “Replenishing the malaria drug discovery pipeline: Screening and hit evaluation of the MMV Hit Generation Library 1 (HGL1) against asexual blood stage Plasmodium falciparum ,using a nano luciferase reporter read-out” (2022).

The whole screen tested about 150,000 compounds, of which about 540 (0.36%) showed an effect of 50% or more. Some of the results follow.

The test system of the test is Plasmodium falciparum. In words: Primary screen in NF54 nanoGlo assay, in single point, at 2uM, 72h; a lower Z score goes with more inhibition. The test is classed as functional, Erythrocyte. The following applies: timepoint 72 hour.
As to `Cn1c(COc2ccc3c(c2)OCO3)cc(=O)n(C)c1=O`, the “% Inhibition” value is -12% and the Z score worked out at 1.87.

In the case of `COc1ncc(CN2CCCN(Cc3ccc(F)cc3)[C@H](C(C)C)C2)cn1`, the “% Inhibition” value was -9% and the Z score worked out at 1.02.

Regarding `CN(C[C@@H]1CCCO1)C(=O)c1ccc(OCC(F)(F)F)nc1`, the “% Inhibition” value was -9% and the Z score amounted to 1.22.

Regarding `CCc1nn(C)c(Cl)c1CN1CCO[C@H]2CCCC[C@@H]21`, the “% Inhibition” value is on record as -12% and the Z score is listed as 1.15.

For `CCOc1cccc2c1OC1(C)C(C(=O)Nc3ccc(C)cc3C)C2NC(=O)N1c1ccccc1C` (stereo not drawn), the “% Inhibition” value is -2% and the Z score was 0.17.

For `O=C(c1cn2c(n1)CCCC2)N1CCN(c2nc[nH]n2)CC1`, the “% Inhibition” value was -7% and the Z score was found to be 0.95.

On to `COc1ccc([C@H]2NS(=O)(=O)NC2=N)cc1`, for which the “% Inhibition” value came out at 1% and the Z score is reported as -0.26.

With `CC(C)Oc1ccccc1CN1CCC(CN2C[C@@H](C(=O)NC3CC3)CC2=O)CC1`, the “% Inhibition” value is 2% and the Z score was -0.22.

With `Cc1c(C(=O)N2CCO[C@H](c3ccccc3)C2)cnn1-c1ccncc1`, the “% Inhibition” value is reported as -4% and the Z score turned out to be 0.31.

For the compound `COc1cc2c(cc1OC)[C@@H](NC(=O)c1[nH]nc3c1CCC3)CC2`, the “% Inhibition” value is on record as -5% and the Z score stood at 0.69.

Turning to `O=C(NC1(CN2CCOCC2)CCCC1)c1cccc(-c2cc(O)ncn2)c1`, the “% Inhibition” value came to 7% and the Z score was -0.88.

For `C[C@@H](Cn1cnc2c1CCCC2)C(=O)O`, the “% Inhibition” value is on record as -7% and the Z score turned out to be 1.24.

For `COc1ccccc1N1CCN(C(=O)c2nn[nH]c2Nc2ccccc2F)CC1`, the “% Inhibition” value is -1% and the Z score worked out at 0.19.

Turning to `CN(CC1(N(C)C)CCC1)C(=O)c1cn(C)nc1C1CC1`, the “% Inhibition” value is listed as -1% and the Z score was found to be 0.2.

In the case of `O=C(NCN1CCOCC1)c1ccccc1Cl`, the “% Inhibition” value is reported as 9% and the Z score is -1.04.

For the compound `CCc1c(C(=O)N2CC(CO)OCC2C)cnn1CC(C)C` (stereo not drawn), the “% Inhibition” value is on record as -4% and the Z score is given as 0.36.

In the case of `O=S(=O)(NC1(c2ccc(Br)cc2)CCC1)c1ccccc1`, the “% Inhibition” value is reported as 0% and the Z score is on record as 0.04.

Consider `COc1ccc(C(C)(C)C)cc1CNc1nc(C)cc(=O)[nH]1`, for which the “% Inhibition” value was found to be 6% and the Z score is -0.8.

Consider `Cc1ccc(-n2nc(C)cc2NC(=O)CCc2ccc(C)o2)nn1`, for which the “% Inhibition” value is recorded as -30% and the Z score worked out at 3.57.

In the case of `COc1ccc(C(=O)N2CCN(c3nc(Cc4ccc(C)cc4)nc4c3c(C)nn4-c3ccccc3)CC2)cc1`, the “% Inhibition” value was found to be 3% and the Z score is reported as -0.6.

`Cc1ccc(-c2nc3c(=O)[nH]cnc3o2)cc1`: the “% Inhibition” value is reported as -14% and the Z score is 2.6.

On to `CC(=O)Nc1cc(-c2nc(-c3ccc4c(c3)nc(C)c(=O)n4C3CCCC3)no2)ccc1C`, for which the “% Inhibition” value is given as -12% and the Z score is reported as 1.16.

With `Cc1nn(C)c(C)c1NC(=O)CN(C1CCCC1)C1CC1`, the “% Inhibition” value is -6% and the Z score was found to be 1.15.

In the case of `CO[C@@H](CNC(=O)C1CCC1)c1ccco1`, the “% Inhibition” value is reported as 17% and the Z score is on record as -2.22.

As to `COCCOc1ccc(CNC(=O)c2cc3cccc(F)c3o2)cn1`, the “% Inhibition” value was -11% and the Z score was determined as 2.15.

For `Cc1ccc(S(=O)(=O)N2CCC[C@H](n3cnc4ccccc4c3=O)C2)cc1Cl`, the “% Inhibition” value is recorded as -7% and the Z score was 1.11.

Turning to `COc1cccc(CN2CCC[C@@]3(CCN(C(=O)c4cccc(C)n4)C3)C2)c1OC`, the “% Inhibition” value is listed as -4% and the Z score stood at 0.61.

As to `CCc1[nH]nc(-c2ccccc2)c1NC(=O)c1ccccc1OC`, the “% Inhibition” value is listed as -11% and the Z score was 1.04.

On to `CCOc1cc2c(C#N)c(OCC)nc3c2c(n1)NC1(CCCCC1)N3`, for which the “% Inhibition” value is 4% and the Z score is on record as -0.58.

With `CCc1ccnc(C(=O)Nc2ncncc2C(C)C)c1`, the “% Inhibition” value was -4% and the Z score came out at 0.73.

`CC(C)Cn1nccc1C(=O)Nc1cncc(C(C)C)c1`: the “% Inhibition” value was -1% and the Z score is on record as 0.15.

Take `CCc1csc(-c2c(CC)c(CC)n[nH]c2=O)n1`: the “% Inhibition” value stood at 0% and the Z score is reported as -0.04.

Take `NCc1ccc(-c2noc(C3CC4CCCCC(C3)C4=O)n2)c(F)c1` (stereo not drawn): the “% Inhibition” value is listed as 0% and the Z score is given as -0.01.

For the compound `CC(=O)NCCc1cn(-c2ccc3c(c2)OC(F)(F)O3)cn1`, the “% Inhibition” value is given as -2% and the Z score amounted to 0.4.

With `O=C(c1ccccc1)N1CCC[C@@H]1CCc1noc(C2CC2)n1`, the “% Inhibition” value is reported as -1% and the Z score amounted to 0.1.

As to `O=C(c1cc[nH]c1C1CC1)N1CCN[C@H](c2cccc(Cl)c2)C1`, the “% Inhibition” value is listed as -6% and the Z score was determined as 0.77.

As to `CC1CC1c1ccc(CN(C)S(=O)(=O)N(C)C(C)C)o1` (stereo not drawn), the “% Inhibition” value is on record as -9% and the Z score is on record as 1.13.

In the case of `CCCc1c(-c2ccccc2)nc(N2CCN(C(c3ccccc3)c3ccccc3)CC2)[nH]c1=O`, the “% Inhibition” value is on record as -11% and the Z score is 1.61.

For the compound `Cn1ccnc1-c1nccn1C[C@H](O)c1cccnc1`, the “% Inhibition” value is reported as -5% and the Z score stood at 0.78.

In the case of `O=C(Cn1ncc2c([nH]c3ccccc32)c1=O)NCc1ccc2c(c1)OCO2`, the “% Inhibition” value is on record as -1% and the Z score came out at 0.22.

Turning to `COCCC(NC(=O)C(C)OC)c1ccc(Cl)cc1` (stereo not drawn), the “% Inhibition” value is 33% and the Z score is reported as -3.77.

`Cc1ncc(-c2nc(C3CC3)no2)s1`: the “% Inhibition” value is -3% and the Z score is recorded as 0.49.

In the case of `Cc1nc(C)n(CCCNC(=O)[C@@H](c2ccc(F)cc2)N2CCCCC2)n1`, the “% Inhibition” value is -6% and the Z score was determined as 0.71.

For `CCCNC(=O)COc1c(C)[nH]c2ccccc2c1=O`, the “% Inhibition” value is on record as -11% and the Z score is listed as 1.33.

Regarding `O=C(CCCc1ncc(-c2ccccc2)o1)N[C@H]1CCS(=O)(=O)C1`, the “% Inhibition” value is -17% and the Z score is on record as 1.57.

On to `COCCN(CC(=O)N(Cc1ccc(C)cc1)C1CCN(C(=O)c2ccc(F)cc2)CC1)S(=O)(=O)c1ccccc1`, for which the “% Inhibition” value is listed as 2% and the Z score was -0.3.

As for `CCn1cc(C(=O)N(Cc2ccccc2)CC2(O)CCCC2)cn1`, the “% Inhibition” value is on record as -3% and the Z score came out at 0.54.

In the case of `Cc1ccc(-n2cccc2CC(=O)NCCN(C)C)cc1`, the “% Inhibition” value is recorded as -10% and the Z score is given as 1.46.

On to `CC(C)N1CCN(C(=O)[C@@H]2C[C@H](Oc3ccccc3)CN2C2CCOCC2)CC1`, for which the “% Inhibition” value is reported as -7% and the Z score was 0.9.

Take `C#CC(C)(CC)NC(=O)C1CCCCC(=O)N1` (stereo not drawn): the “% Inhibition” value is -9% and the Z score stood at 0.97.

As to `O[C@@]1(C(F)(F)F)CCN(Cc2cccnc2)C1`, the “% Inhibition” value was -1% and the Z score is listed as 0.16.

Regarding `Cc1cccc(NC(=O)C2[C@@H]3C=C[C@]4(O3)C(C(=O)NC3CCCCC3C)N(C3CCC(C)CC3)C(=O)[C@H]24)c1` (stereo partly drawn), the “% Inhibition” value is listed as -12% and the Z score came to 1.89.

As for `O=C(c1cc(N2CCNC2=O)ccc1Cl)N1CCNCC1`, the “% Inhibition” value is on record as -3% and the Z score was 0.37.

As to `CC(=O)NCc1ccc(C(=O)NC(C2CC2)C2CC2)s1`, the “% Inhibition” value came out at 0% and the Z score is listed as -0.07.
